Source: PubChem BioAssay (NCI)
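Grown in 96-well plates, cells were treated for 48 hours with each compound at five concentrations. Insufficient inhibition: endpoint recorded as highest concentration tested. GI50 is the concentration that inhibits growth by half. The concentration for full growth arrest is given as TGI.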

system: NCI-H322M lung; experiment: DTP human tumour cell line panel, 48 h

| SMILES | TGI | GI50 |
| --- | --- | --- |
| O=Nc1c(-c2c(O)[nH]c3ccccc23)[nH]c2ccccc12 | 15.3 µM | – |
| CC(C)/C(Cl)=N/OC(=O)Nc1cccc(C(F)(F)F)c1 | 18.1 µM | – |
| CC1=C(C#N)C23C(=O)c4ccccc4C(O)=C2C(=O)C=CC3(O)N1 (centres undefined) | 43.4 µM | – |
| COC(=O)C(=O)C(C(=O)C1=NS(=O)(=O)c2cc(S(N)(=O)=O)c(Cl)cc2N1)c1nc2ccc(C(=O)c3ccccc3)cc2[nH]c1=O (centres undefined) | > 100 µM | – |
| O=C(NCCc1ccccc1)[C@H]1CCCC[C@@H]1CCO | > 100 µM | – |
| O=C(N/N=C/c1ccccc1O)C(O)(c1ccccc1)c1ccccc1 | > 100 µM | 3.11 µM |
| COc1ccccc1-c1cc(/C=C2\C(=O)Nc3ncc(Br)cc32)cc(Br)c1O | > 25 µM | 18.7 µM |
| N.N.N.N.O=NN1CCCCCC1(P(=O)([O-])[O-])P(=O)([O-])[O-].[Pt+4].[Pt+4] | > 100 µM | > 100 µM |
| CCCCC(C(=O)N/N=C/c1ccc([N+](=O)[O-])o1)C(=O)N/N=C/c1ccc([N+](=O)[O-])o1 | 28.3 µM | – |
| CCN(CC)CC.CCOc1ccc(NC(=O)N=C=[N-])cc1.[CH-]1CCCCC1.[CH-]1CCCCC1.[CH-]1CCCCC1.[Cl-].[Sn+4] | 0.16 µM | 0.0492 µM |
| Cc1nc2ccccn2c1NC(=O)NNC(=S)Nc1ccc(Br)cc1 | > 100 µM | 99.8 µM |
| CS/C(C#N)=C(\C#N)SC | > 100 µM | – |
| COc1cccc(NC(=O)C(C)(C)C)c1C=O | > 100 µM | – |
| CCC(=O)C1(N2CCOCC2)CCN(CCCC(=O)c2ccc(F)cc2)CC1 | > 100 µM | – |
| C[N+](C)(C)CC(=O)N/N=C(\CCC(=O)NCCc1ccccc1)CC(=O)c1ccccc1 | > 100 µM | – |
| CC1CN(c2ccc(Cl)cc2)CC(C)(C)OC(=O)O1 (centres undefined) | > 100 µM | – |
| COc1ccc(/C=C/C(=O)C(C)(C)CN2CCCCC2)cc1 | 57.3 µM | – |
| O=c1[nH]c(=O)n(C2OC(CO)C(O)C2O)c2ncc(-c3ccc(-c4ccccc4)cc3)nc12 (centres undefined) | > 20 µM | – |
| COc1cc2c(c(OC)c1O)-c1ccc(OC)c(=O)cc1[C@@H](NC(=O)C(F)(F)F)CC2 | > 100 µM | – |
| COC(=O)[C@@]1(Cc2ccccc2)[C@H]2c3cc(C(=O)N4CCCC4)n(Cc4ccc(OC)c(OC)c4)c3C[C@H]2CN1C(=O)c1ccccc1 | > 50 µM | 14.6 µM |
| CCOC(=O)Cc1nc2ccccc2s1 | 50.4 µM | – |
| COc1cc2c3c(c4ccc(OC)c(OC)c4c2cc1OC)CN1CCC[C@@H]1C3 | > 33.9 µM | – |
| CCN1C(=O)N(CC)C2C1NN=c1s/c(=C\c3ccccc3F)c(=O)n12 (centres undefined) | > 100 µM | 0.0781 µM |
| COCc1c(CO)cnc(C)c1OC1OC(CO)C(O)C(O)C1O (centres undefined) | > 100 µM | – |
| CCOC(=O)C[C@@H](C)[C@]1(C(=O)OC)CCCC1=O | > 100 µM | – |

| SMILES | TGI | GI50 |
| --- | --- | --- |
| COc1cccc(C(=O)Nc2c3ccccc3nc3ccccc23)c1OC | > 100 µM | – |
| O=c1cc(-c2ccccc2)oc2cc(OCC(O)COc3ccc4c(=O)cc(-c5ccccc5)oc4c3)ccc12 | > 100 µM | – |
| COC(=O)C(Cc1ccccc1)NC(=O)C(CCC(=O)OCc1ccccc1)NC(=O)OC(C)(C)C (centres undefined) | > 100 µM | – |
| CN(C)c1ncnc2c1Cc1ccccc1C(=O)N2C | > 100 µM | – |
| Cc1cc(S(=O)(=O)NC(=C(C#N)C#N)[n+]2ccc(N(C)C)cc2)c([S-])cc1Cl | > 100 µM | – |
| Cc1ccc2[nH]c3c(C)c4c(c(C)c3c2c1)CN(C)C=C4 | 11.7 µM | – |
| COc1cc2c(F)nccc2cc1C(=O)N[C@@H](c1ccc(F)c(Cl)c1)[C@@H]1C[C@@H](O)CN1 | 35.7 µM | 12.1 µM |
| COc1cc(C2SCC(=O)N2Cc2ccccc2)cc(OC)c1OC (centres undefined) | > 100 µM | – |
| O=C1Oc2ccccc2C(=O)/C1=C/N1C(=O)/C(=C/c2ccc3c(c2)OCO3)SC1=S | > 55.4 µM | – |
| N#CC(/C(=N\NC(=O)c1ccncc1)C(=O)Nc1ccc([N+](=O)[O-])cc1[N+](=O)[O-])c1nc(-c2ccc(Br)cc2)cs1 (centres undefined) | > 100 µM | – |
| Cc1nn2c(=O)c([N+](=O)[O-])c(/C=C/c3ccco3)nc2s1 | > 100 µM | – |
| CC(=O)[O-].CC(=O)[O-].O=C(N/N=C/c1cc(Cl)cc(Cl)c1O)c1ccncc1.[Ni+2] | > 100 µM | – |
| COc1ccc2c(c1O)C(=O)C(CCC(=O)O)CC2 (centres undefined) | > 100 µM | – |
| Cn1cc(-c2csc(-c3cn(C)c4ccc(Br)cc34)n2)c2cnccc21 | 3.18 µM | 1.77 µM |
| O=c1oc2ccccc2n1P(=O)(n1c(=O)oc2ccccc21)n1c(=O)oc2ccccc21 | > 100 µM | – |
| CCOC(=O)[C@@H]1OC(c2ccccc2)O[C@H]1C(=O)OCC | > 100 µM | – |
| Cc1cc(=O)oc2cc(SC(=O)N(C)C)ccc12 | > 100 µM | – |
| CC1(C)O[C@H]([C@H](O)c2nnc3ccc(Cl)nn23)[C@@H]([C@H]2COC(C)(C)O2)O1 | > 100 µM | – |
| Cc1ccc(S(=O)(=O)Oc2ccc([N+](=O)[O-])cc2[N+](=O)[O-])cc1 | 29 µM | 14.1 µM |
| CCCOc1ccc(-c2nc(-c3ccc(N=Cc4ccc(N(CCOS(C)(=O)=O)CCOS(C)(=O)=O)cc4C)cc3)cs2)cc1 | 38 µM | – |
| CC(=O)OCC1OC(n2c(C#N)cc(=O)[nH]c2=O)CC1OC(C)=O (centres undefined) | > 100 µM | – |
| O=C(CSc1nnc(Cc2ccccc2)o1)Nc1cccc(Cl)c1 | > 100 µM | – |
| O=c1[nH]cc(/C=N\Nc2ccccc2)c(=O)[nH]1 | > 100 µM | – |
| O=C(Nc1cccc(NC(=O)C(=O)C2CCC3=C(Sc4ccccc4N3)C2=O)n1)C(=O)C1CCC2=C(Sc3ccccc3N2)C1=O (centres undefined) | > 100 µM | – |
